Measured values from the supplement of paper PMC10126150.
Sequences with one replicate were seen in a single cluster, so their values are uncertain.

tested on: ATP; experiment: switch fluorescence ratio, 500 uM ATP over buffer (Cy3 cluster intensity, sum of 5 cycles each) (fold (ratio)); higher = stronger signal-on switching upon ATP binding; sequences stand for … in TCGTCGGCAGCGTCAGATGTGTATAAGAGACAGTTTTTTTTTTTTTTTTTTTTTTTTT…TC; details: aptamer strand: ATP DNA aptamer (quencher-CACCTGGGGGAGTATTGCGGAGGAAGG + anchor), 100 nM annealed; ATP concentration: 500 uM; one replicate
Procedure, shortened: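 The quencher-labelled ATP aptamer, at 100 nM, was annealed to Cy3-labelled switching-strand clusters on a modified Illumina MiSeq flow-cell. The clusters were imaged in selection buffer, then after 15 min with 500 uM ATP at 22 °C, and this buffer/ATP cycle ran five times with NaOH stripping and re-annealing between runs. Per-cluster fluorescence ratios, summed target-cycle over summed buffer-cycle Cy3 intensity, were averaged per switch-domain sequence. Clusters outside 100-1000 RFU were excluded.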
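Further: ATP exposure 15 min at 22 °C before imaging.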

Sequence | switch fluorescence ratio
CGATAAAACT | 0.959
CGATACATAG | 1.03
CGATACGCTT | 1.11
CGATACGGAT | 0.984
CGATAGAAAA | 0.973
CGATAGAGAC | 1.07
CGATAGAGCT | 1.02
CGATAGTCTG | 1.01
CGATCACAGC | 1.08
CGATCACATT | 0.991
CGATCACGC | 1.06
CGATCGGCCC | 0.977
CGATCGGGAA | 1.02
CGATCGGGG | 0.948
CGATCGTTCG | 1.03
CGATCTCCAG | 1.04
CGATGACAGG | 1.34
CGATGGCCAC | 1.01
CGATGGCGTA | 0.986
CGATGGCTGT | 1.04
CGATGGGCT | 1.01
CGATGGTTA | 0.971
CGATGTGCG | 0.945
CGATTATGAG | 0.987
CGATTCATGG | 0.978
CGATTCTAGC | 1.03

Sequence | switch fluorescence ratio
CGATTGGCAG | 0.989
CGATTGGTAA | 1.03
CGATTGGTGA | 0.986
CGATTGGTTA | 1.03
CGATTGTGAT | 1.02
CGATTTAGC | 1.01
CGATTTGAGA | 1.01
CGATTTGCGG | 0.998
CGCACTAAGA | 1.06
CGCACTAGAT | 1.05
CGCACTTTCG | 1.05
CGCAGTTGCA | 0.973
CGCATACGCG | 1.07
CGCATAGGCG | 1.01
CGCATAGTCG | 1.18
CGCATCAATC | 2.25
CGCATCTTTC | 1.34
CGCATTAACG | 1.4
CGCATTTACA | 1.64
CGCCAATTGT | 1.04
CGCCACAGAA | 1
CGCCACTGTT | 1.09
CGCCATCGAT | 1.05
CGCCCACAAT | 2.31
CGCCCATGGC | 1.04
CGCCCCCGGA | 1.04

Sequence | switch fluorescence ratio
CGCCCCGGTA | 1.05
CGCCCGGAGG | 1.01
CGCCCGGCCA | 1.01
CGCCCGTATC | 1.13
CGCCCTTGCA | 1.03
CGCCGCAGGT | 1.67
CGCCGGTTCC | 1.03
CGCCGTGGCA | 1.03
CGCCGTTCGC | 1.09
CGCCTAACTC | 1.58
CGCCTCATA | 1.08
CGCCTCGCCA | 1.07
CGCCTCGTGT | 0.982
CGCCTCTATC | 1.04
CGCGAAAGAT | 1.01
CGCGAAATCC | 1.22
CGCGACCTTA | 1.02
CGCGACTTAC | 3.71
CGCGATGACA | 1.05
CGCGATTTCC | 2.13
CGCGCCACCG | 1.05
CGCGCCACGA | 1.05
CGCGCGTTTC | 0.968
CGCGGACTAG | 0.981
CGCGGCACGT | 1.04
CGCGGCAGAC | 2.34

Sequence | switch fluorescence ratio
CGCGGCCTGA | 1
CGCGGCGCGG | 0.995
CGCGGGGACG | 1.03
CGCGGGGTCT | 1.07
CGCGGGTTCG | 1.04
CGCGGTGAGG | 0.981
CGCGGTGGCC | 1.03
CGCGTCATCA | 0.979
CGCGTCTCCG | 1.15
CGCGTCTGCG | 0.984
CGCGTTTAGC | 1.05
CGCTAAAACG | 1.05
CGCTAAAAT | 0.998
CGCTAATAGA | 1.01
CGCTACAGGC | 1.02
CGCTAGGCCC | 1.09
CGCTAGGGTC | 1.05
CGCTAGTGAG | 1.05
CGCTAGTTC | 1.17
CGCTAGTTGT | 1.02
CGCTATCTCT | 1.7
CGCTATTCTT | 1.15
CGCTCAATTA | 1.06
CGCTCTGAAT | 0.999
CGCTCTTAGG | 1.01
CGCTGACTAT | 1.08

Sequence | switch fluorescence ratio
CGCTGCCCTA | 1.06
CGCTGCGGGA | 1.08
CGCTGCTGCG | 1.02
CGCTGGGGCC | 1.01
CGCTGGGTCT | 0.947
CGCTGTAGTC | 1.06
CGCTGTTGAC | 1.1
CGCTTCAGAT | 0.977
CGCTTCGTTG | 0.992
CGCTTCTAGT | 0.98
CGCTTGGATC | 1.06
CGCTTTCCTT | 1.07
CGGAAACTGA | 1.02
CGGAAAGCAA | 2.82
CGGAAAGGCG | 1.03
CGGAAATCCC | 1.08
CGGAACGGCA | 1.01
CGGAAGATC | 1.1
CGGAATATAC | 2.23
CGGAATTCCT | 0.987
CGGACACAGC | 1.14
CGGACCAGGG | 0.985
CGGACCCGCA | 2.05
CGGACGCGGA | 1.24
CGGACGTGAT | 2.75
CGGACGTGTG | 0.965

Sequence | switch fluorescence ratio
CGGAGAGCCT | 0.996
CGGAGAGGAA | 1.03
CGGAGAGTAT | 0.996
CGGAGAGTTA | 1.01
CGGAGATTAT | 0.975
CGGAGCCTC | 1.72
CGGAGGCATG | 1.09
CGGAGGGCAG | 1.02
CGGAGTCGC | 1.07
CGGAGTGGGA | 0.984
CGGATACCTT | 1.06
CGGATACGGA | 0.962
CGGATCACGT | 0.983
CGGATCTCTG | 0.989
CGGATTATGC | 1.14
CGGATTCTTG | 1
CGGATTGACT | 1.01
CGGATTGTCA | 1.01
CGGCAAGTCG | 1
CGGCAGCAGG | 1.14
CGGCAGGTCA | 1.02
CGGCATAGGG | 0.934
CGGCATGTGT | 0.993
CGGCATTGAC | 1.65
CGGCCCAGCA | 1.07
CGGCCGCGG | 0.983

Sequence | switch fluorescence ratio
CGGCCGCGTG | 1.06
CGGCCGGCGC | 1.02
CGGCCGGTCT | 0.966
CGGCCTCTGG | 0.996
CGGCGCCTGG | 1.03
CGGCGTGCTG | 0.933
CGGCTATA | 1.1
CGGCTCAATA | 1.43
CGGCTCGTTG | 1.04
CGGCTGATG | 0.998
CGGCTGGATA | 0.995
CGGCTGTCGA | 1
CGGCTTAATG | 0.984
CGGCTTCTTT | 0.979
CGGGAAAAGC | 0.98
CGGGATTGTT | 0.996
CGGGCAGGAG | 0.984
CGGGCATAAG | 1.02
CGGGCATCAA | 0.999
CGGGCCAATG | 1.04
CGGGCGTTGC | 1.07
CGGGCTCGCG | 0.978
CGGGCTGGAT | 1.01
CGGGGAAG | 0.987
CGGGGATAA | 1.03
CGGGGATTCA | 1.01

Sequence | switch fluorescence ratio
CGGGGCAGTC | 0.976
CGGGGCGACT | 1.03
CGGGGCTT | 1.01
CGGGTAAAGT | 1.04
CGGGTAACCT | 1.62
CGGGTACACA | 0.995
CGGGTATGCA | 0.991
CGGGTCAAGT | 0.971
CGGGTCCTCC | 1.01
CGGGTGAAG | 1
CGGGTGGGGT | 0.999
CGGGTTAA | 0.978
CGGGTTCACG | 1.01
CGGGTTGCTC | 1.01
CGGTAAAGGC | 1
CGGTAAAGGG | 0.978
CGGTAAAGGT | 1.03
CGGTAACCAC | 1.04
CGGTAAGCCA | 0.98
